# The supplement of paper PMC8728848
# The list shows a part of the results.
# B1: Gal 2 (Homo sapiens), P05162 (protein)
# chain: MTGELEVKNMDMKPGSTLKITGSIADGTDGFVINLGQGTDKLNLHFNPRFSESTIVCNSLDGSNWGQEQREDHLCFSPGSEVKFTVTFESDKFKVKLPDGHELTFPNRLGHSHLSYLSVRGGFNMSSFKLKE
# Columns and labels:
# Assay in all cases: glycan array binding signal (z-score within array); higher = stronger binding
# Settings in all cases: glycan notation: IUPAC condensed, linker removed
# Man(b1-4)GlcNAc = biological target: Man(b1-4)GlcNAc
# Method in brief: (§1)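 The binding signal is a Z-score computed within each array and averaged over linkers. Arrays of the same protein sequence at different concentrations or buffers were also averaged together. Data originate from 3228 arrays in the Consortium for Functional Glycomics database, kept only where the protein sequence was available.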
# MurNAc(b1-4)GlcNAc = biological target: MurNAc(b1-4)GlcNAc
# Method in brief: as §1
# Neu5Ac(a2-3)Gal = biological target: Neu5Ac(a2-3)Gal
# Method in brief: as §1
# [1] = biological target: Neu5Ac(a2-3)Gal(b1-3)GalNAc
# Method in brief: as §1
# [2] = biological target: Neu5Ac(a2-3)Gal(b1-3)GalNAc(b1-3)Gal(a1-4)Gal(b1-4)Glc
# Method in brief: as §1
# [3] = biological target: Neu5Ac(a2-3)Gal(b1-3)GalNAc(b1-3)Gal(b1-4)GlcNAc
# Method in brief: as §1
# [4] = biological target: Neu5Ac(a2-3)Gal(b1-3)GalNAc(b1-4)[Neu5Ac(a2-3)]Gal(b1-4)Glc
# Method in brief: as §1
# [5] = biological target: Neu5Ac(a2-3)Gal(b1-3)GalNAc(b1-4)[Neu5Ac(a2-8)Neu5Ac(a2-3)]Gal(b1-4)Glc
# Method in brief: as §1
# [6] = biological target: Neu5Ac(a2-3)Gal(b1-3)GalNAc6S
# Method in brief: as §1
# [7] = biological target: Neu5Ac(a2-3)Gal(b1-3)GlcNAc
# Method in brief: as §1
# [8] = biological target: Neu5Ac(a2-3)Gal(b1-3)GlcNAc(b1-2)Man
# Method in brief: as §1
# [9] = biological target: Neu5Ac(a2-3)Gal(b1-3)GlcNAc(b1-2)Man(a1-3)[GlcNAc(b1-4)][Neu5Ac(a2-3)Gal(b1-3)GlcNAc(b1-2)Man(a1-6)]Man(b1-4)GlcNAc(b1-4)GlcNAc
# Method in brief: as §1
# [10] = biological target: Neu5Ac(a2-3)Gal(b1-3)GlcNAc(b1-2)Man(a1-3)[Neu5Ac(a2-3)Gal(b1-3)GlcNAc(b1-2)Man(a1-6)]Man(b1-4)GlcNAc(b1-4)GlcNAc
# Method in brief: as §1
# [11] = biological target: Neu5Ac(a2-3)Gal(b1-3)GlcNAc(b1-3)Gal(b1-3)GlcNAc
# Method in brief: as §1
# [12] = biological target: Neu5Ac(a2-3)Gal(b1-3)GlcNAc(b1-3)Gal(b1-4)GlcNAc
# Method in brief: as §1
# [13] = biological target: Neu5Ac(a2-3)Gal(b1-3)GlcNAc(b1-3)GalNAc
# Method in brief: as §1
# [14] = biological target: Neu5Ac(a2-3)Gal(b1-3)GlcNAc(b1-4)Gal(b1-4)Glc
# Method in brief: as §1
# [15] = biological target: Neu5Ac(a2-3)Gal(b1-3)GlcNAc(b1-6)GalNAc
# Method in brief: as §1
# [16] = biological target: Neu5Ac(a2-3)Gal(b1-3)GlcNAc6S
# Method in brief: as §1
# [17] = biological target: Neu5Ac(a2-3)Gal(b1-3)[Fuc(a1-4)]GlcNAc
# Method in brief: as §1
# [18] = biological target: Neu5Ac(a2-3)Gal(b1-3)[Fuc(a1-4)]GlcNAc(b1-3)Gal(b1-3)[Fuc(a1-4)]GlcNAc
# Method in brief: as §1
# [19] = biological target: Neu5Ac(a2-3)Gal(b1-3)[Fuc(a1-4)]GlcNAc(b1-3)Gal(b1-4)[Fuc(a1-3)]GlcNAc
# Method in brief: as §1
# [20] = biological target: Neu5Ac(a2-3)Gal(b1-3)[GlcNAc(b1-6)]GalNAc
# Method in brief: as §1
# [21] = biological target: Neu5Ac(a2-3)Gal(b1-3)[Neu5Ac(a2-3)Gal(b1-4)]GlcNAc
# Method in brief: as §1
# [22] = biological target: Neu5Ac(a2-3)Gal(b1-3)[Neu5Ac(a2-6)]GalNAc
# Method in brief: as §1
# [23] = biological target: Neu5Ac(a2-3)Gal(b1-3)[Neu5Ac(a2-6)]GlcNAc(b1-3)[Fuc(a1-3)[Gal(b1-4)]GlcNAc(b1-6)]Gal(b1-4)Glc
# Method in brief: as §1
# [24] = biological target: Neu5Ac(a2-3)Gal(b1-3)]Neu5Ac(a2-3)Gal(b1-4)]GlcNAc
# Method in brief: as §1
# Neu5Ac(a2-3)Gal(b1-4)Glc = biological target: Neu5Ac(a2-3)Gal(b1-4)Glc
# Method in brief: as §1
# [25] = biological target: Neu5Ac(a2-3)Gal(b1-4)GlcNAc
# Method in brief: as §1
# [26] = biological target: Neu5Ac(a2-3)Gal(b1-4)GlcNAc(b1-2)Man
# Method in brief: as §1
# [27] = biological target: Neu5Ac(a2-3)Gal(b1-4)GlcNAc(b1-2)Man(a1-3)[GlcNAc(b1-2)Man(b1-4)GlcNAc(b1-2)Man(a1-6)]Man(b1-4)GlcNAc(b1-4)GlcNAc
# Method in brief: as §1
# [28] = biological target: Neu5Ac(a2-3)Gal(b1-4)GlcNAc(b1-2)Man(a1-3)[GlcNAc(b1-4)][Neu5Ac(a2-3)Gal(b1-4)GlcNAc(b1-2)Man(a1-6)]Man(b1-4)GlcNAc(b1-4)GlcNAc
# Method in brief: as §1
# [29] = biological target: Neu5Ac(a2-3)Gal(b1-4)GlcNAc(b1-2)Man(a1-3)[Neu5Ac(a2-3)Gal(b1-4)GlcNAc(b1-2)Man(a1-6)]Man(b1-4)GlcNAc(b1-4)GlcNAc
# Method in brief: as §1
# [30] = biological target: Neu5Ac(a2-3)Gal(b1-4)GlcNAc(b1-2)Man(a1-3)[Neu5Ac(a2-3)Gal(b1-4)GlcNAc(b1-2)Man(a1-6)]Man(b1-4)GlcNAc(b1-4)[Fuc(a1-6)]GlcNAc
# Method in brief: as §1
# [31] = biological target: Neu5Ac(a2-3)Gal(b1-4)GlcNAc(b1-2)Man(a1-3)[Neu5Ac(a2-6)Gal(b1-4)GlcNAc(b1-2)Man(a1-6)]Man(b1-4)GlcNAc(b1-4)GlcNAc
# Method in brief: as §1
# [32] = biological target: Neu5Ac(a2-3)Gal(b1-4)GlcNAc(b1-2)[Neu5Ac(a2-3)Gal(b1-4)GlcNAc(b1-4)]Man(a1-3)[GlcNAc(b1-4)][Neu5Ac(a2-3)Gal(b1-4)GlcNAc(b1-2)[Neu5Ac(a2-3)Gal(b1-4)GlcNAc(b1-6)]Man(a1-6)]Man(b1-4)GlcNAc(b1-4)GlcNAc
# Method in brief: as §1
# [33] = biological target: Neu5Ac(a2-3)Gal(b1-4)GlcNAc(b1-2)[Neu5Ac(a2-3)Gal(b1-4)GlcNAc(b1-4)]Man(a1-3)[GlcNAc(b1-4)][Neu5Ac(a2-3)Gal(b1-4)GlcNAc(b1-4)Man(a1-6)]Man(b1-4)GlcNAc(b1-4)GlcNAc
# Method in brief: as §1
# [34] = biological target: Neu5Ac(a2-3)Gal(b1-4)GlcNAc(b1-2)[Neu5Ac(a2-3)Gal(b1-4)GlcNAc(b1-6)]Man(a1-6)[Neu5Ac(a2-3)Gal(b1-4)GlcNAc(b1-2)Man(a1-3)]Man(b1-4)GlcNAc(b1-4)GlcNAc
# Method in brief: as §1
# [35] = biological target: Neu5Ac(a2-3)Gal(b1-4)GlcNAc(b1-2)[Neu5Ac(a2-3)Gal(b1-4)GlcNAc(b1-6)]Man(a1-6)[Neu5Ac(a2-3)Gal(b1-4)GlcNAc(b1-2)Man(a1-3)][GlcNAc(b1-4)]Man(b1-4)GlcNAc(b1-4)GlcNAc
# Method in brief: as §1
# [36] = biological target: Neu5Ac(a2-3)Gal(b1-4)GlcNAc(b1-3)Gal
# Method in brief: as §1
# [37] = biological target: Neu5Ac(a2-3)Gal(b1-4)GlcNAc(b1-3)Gal(b1-3)GlcNAc
# Method in brief: as §1
# [38] = biological target: Neu5Ac(a2-3)Gal(b1-4)GlcNAc(b1-3)Gal(b1-4)GlcNAc
# Method in brief: as §1
# [39] = biological target: Neu5Ac(a2-3)Gal(b1-4)GlcNAc(b1-3)Gal(b1-4)GlcNAc(b1-2)Man(a1-3)[Neu5Ac(a2-3)Gal(b1-4)GlcNAc(b1-3)Gal(b1-4)GlcNAc(b1-2)Man(a1-6)]Man(b1-4)GlcNAc(b1-4)GlcNAc
# Method in brief: as §1
# [40] = biological target: Neu5Ac(a2-3)Gal(b1-4)GlcNAc(b1-3)Gal(b1-4)GlcNAc(b1-3)Gal(b1-4)GlcNAc
# Method in brief: as §1
# [41] = biological target: Neu5Ac(a2-3)Gal(b1-4)GlcNAc(b1-3)Gal(b1-4)GlcNAc(b1-3)Gal(b1-4)GlcNAc(b1-2)Man(a1-3)[Neu5Ac(a2-3)Gal(b1-4)GlcNAc(b1-3)Gal(b1-4)GlcNAc(b1-3)Gal(b1-4)GlcNAc(b1-2)Man(a1-6)]GalNAc
# Method in brief: as §1
binder,measurement,setting,value
B1,glycan array binding signal (z-score),Man(b1-4)GlcNAc,-0.273
same,glycan array binding signal (z-score),MurNAc(b1-4)GlcNAc,-0.151
same,glycan array binding signal (z-score),Neu5Ac(a2-3)Gal,-0.242
same,glycan array binding signal (z-score),[1],-0.217
same,glycan array binding signal (z-score),[2],-0.225
same,glycan array binding signal (z-score),[3],-0.256
same,glycan array binding signal (z-score),[4],-0.192
same,glycan array binding signal (z-score),[5],-0.091
same,glycan array binding signal (z-score),[6],-0.259
same,glycan array binding signal (z-score),[7],-0.278
same,glycan array binding signal (z-score),[8],0.401
same,glycan array binding signal (z-score),[9],-0.236
same,glycan array binding signal (z-score),[10],-0.206
same,glycan array binding signal (z-score),[11],-0.214
same,glycan array binding signal (z-score),[12],-0.057
same,glycan array binding signal (z-score),[13],-0.095
same,glycan array binding signal (z-score),[14],-0.212
same,glycan array binding signal (z-score),[15],-0.136
same,glycan array binding signal (z-score),[16],-0.038
same,glycan array binding signal (z-score),[17],-0.214
same,glycan array binding signal (z-score),[18],0.004
same,glycan array binding signal (z-score),[19],-0.172
same,glycan array binding signal (z-score),[20],0.031
same,glycan array binding signal (z-score),[21],-0.278
same,glycan array binding signal (z-score),[22],-0.207
same,glycan array binding signal (z-score),[23],-0.247
same,glycan array binding signal (z-score),[24],0.15
same,glycan array binding signal (z-score),Neu5Ac(a2-3)Gal(b1-4)Glc,-0.242
same,glycan array binding signal (z-score),[25],-0.255
same,glycan array binding signal (z-score),[26],-0.036
same,glycan array binding signal (z-score),[27],-0.245
same,glycan array binding signal (z-score),[28],-0.117
same,glycan array binding signal (z-score),[29],-0.314
same,glycan array binding signal (z-score),[30],-0.158
same,glycan array binding signal (z-score),[31],-0.223
same,glycan array binding signal (z-score),[32],-0.14
same,glycan array binding signal (z-score),[33],0.051
same,glycan array binding signal (z-score),[34],-0.05
same,glycan array binding signal (z-score),[35],-0.178
same,glycan array binding signal (z-score),[36],-0.172
same,glycan array binding signal (z-score),[37],-0.23
same,glycan array binding signal (z-score),[38],-0.292
same,glycan array binding signal (z-score),[39],-0.244
same,glycan array binding signal (z-score),[40],-0.287
same,glycan array binding signal (z-score),[41],0.02
